Data as given in publication PMC2685003.
These are yes or no findings as the source states them, for the method shown. Binding seen in cells or lysates may run through a third protein. Some entries that bind do so weakly or less than the wild type.

By UniProt entry, the sequences of proteins in these tests, tags left out. Residues count along the entry.
UniProt Q9QUK6, residues 26-835: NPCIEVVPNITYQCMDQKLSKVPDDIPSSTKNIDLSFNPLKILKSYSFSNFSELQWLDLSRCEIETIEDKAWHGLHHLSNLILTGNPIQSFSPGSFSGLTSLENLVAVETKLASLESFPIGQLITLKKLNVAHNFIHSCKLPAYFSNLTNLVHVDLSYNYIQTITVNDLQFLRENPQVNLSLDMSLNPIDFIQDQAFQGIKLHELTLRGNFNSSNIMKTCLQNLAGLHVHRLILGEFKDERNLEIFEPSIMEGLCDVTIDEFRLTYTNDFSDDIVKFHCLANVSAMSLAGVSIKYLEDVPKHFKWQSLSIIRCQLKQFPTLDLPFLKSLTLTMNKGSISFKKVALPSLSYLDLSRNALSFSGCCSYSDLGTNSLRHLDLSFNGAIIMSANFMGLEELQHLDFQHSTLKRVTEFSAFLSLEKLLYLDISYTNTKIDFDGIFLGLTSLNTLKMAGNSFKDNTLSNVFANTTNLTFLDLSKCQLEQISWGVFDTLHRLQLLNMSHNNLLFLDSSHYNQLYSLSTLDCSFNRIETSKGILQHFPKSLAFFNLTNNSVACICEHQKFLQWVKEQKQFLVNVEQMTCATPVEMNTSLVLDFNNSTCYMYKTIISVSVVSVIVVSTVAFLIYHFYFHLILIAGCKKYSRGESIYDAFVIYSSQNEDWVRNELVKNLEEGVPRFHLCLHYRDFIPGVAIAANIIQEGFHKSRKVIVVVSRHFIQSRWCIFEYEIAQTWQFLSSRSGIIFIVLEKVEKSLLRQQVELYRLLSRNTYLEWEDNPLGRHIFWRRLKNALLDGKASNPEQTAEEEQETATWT

T1: FcγReceptorIII (CD16) (mouse (endogenous in peritoneal PMNs and macrophages)) (UniProt P08508)
T1 sequence: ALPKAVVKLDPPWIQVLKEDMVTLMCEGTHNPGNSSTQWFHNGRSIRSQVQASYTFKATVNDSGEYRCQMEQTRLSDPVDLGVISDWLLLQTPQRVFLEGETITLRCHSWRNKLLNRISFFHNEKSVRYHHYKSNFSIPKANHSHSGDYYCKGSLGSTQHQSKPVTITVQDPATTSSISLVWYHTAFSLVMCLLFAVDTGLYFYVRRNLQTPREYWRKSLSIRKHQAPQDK

T2: CD23 (FcεRII) (mouse (endogenous in peritoneal PMNs and macrophages)) (UniProt P20693)
T2 sequence: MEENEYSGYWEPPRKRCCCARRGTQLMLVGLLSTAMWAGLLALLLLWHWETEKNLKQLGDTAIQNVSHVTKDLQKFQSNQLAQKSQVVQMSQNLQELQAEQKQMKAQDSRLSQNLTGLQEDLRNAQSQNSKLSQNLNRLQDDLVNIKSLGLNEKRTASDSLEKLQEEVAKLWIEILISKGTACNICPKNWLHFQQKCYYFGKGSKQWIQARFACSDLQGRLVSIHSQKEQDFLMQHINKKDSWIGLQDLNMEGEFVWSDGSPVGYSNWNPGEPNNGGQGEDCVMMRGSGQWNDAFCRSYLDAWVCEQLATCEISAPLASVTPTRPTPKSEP

T3: TLR6 (mouse (endogenous in peritoneal PMNs and macrophages)) (UniProt Q9EPW9)
T3 sequence: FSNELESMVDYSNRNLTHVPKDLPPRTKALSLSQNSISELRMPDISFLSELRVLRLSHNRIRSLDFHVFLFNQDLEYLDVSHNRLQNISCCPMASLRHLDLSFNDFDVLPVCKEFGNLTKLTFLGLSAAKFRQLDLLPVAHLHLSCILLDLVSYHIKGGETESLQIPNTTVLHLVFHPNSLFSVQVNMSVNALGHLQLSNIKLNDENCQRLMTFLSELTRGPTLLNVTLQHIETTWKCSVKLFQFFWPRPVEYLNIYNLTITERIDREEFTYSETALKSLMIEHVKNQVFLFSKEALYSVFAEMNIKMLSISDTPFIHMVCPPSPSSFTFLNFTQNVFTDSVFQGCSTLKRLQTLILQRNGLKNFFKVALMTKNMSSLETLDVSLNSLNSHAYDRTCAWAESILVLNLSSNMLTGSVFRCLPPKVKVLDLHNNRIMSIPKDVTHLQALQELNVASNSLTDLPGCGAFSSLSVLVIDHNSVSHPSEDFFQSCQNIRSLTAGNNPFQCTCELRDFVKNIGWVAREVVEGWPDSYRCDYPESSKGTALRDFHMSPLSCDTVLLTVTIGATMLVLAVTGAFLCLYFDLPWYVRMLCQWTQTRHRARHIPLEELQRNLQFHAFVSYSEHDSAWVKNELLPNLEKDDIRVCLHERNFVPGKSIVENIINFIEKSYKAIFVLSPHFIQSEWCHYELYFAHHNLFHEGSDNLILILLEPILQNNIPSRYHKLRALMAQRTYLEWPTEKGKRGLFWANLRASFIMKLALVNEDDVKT


How the values were obtained:
[1] = molecular target: T1, FcγReceptorIII (CD16) (mouse (endogenous in peritoneal PMNs and macrophages)); test: co-IP; reverse direction: lysates of Wt mouse peritoneal PMNs or macrophages incubated with IgGIC, LPS or both; IP with anti-FcγRIII IgG (Santa Cruz); blot with polyclonal anti-TLR4 IgG
[2] = molecular target: T2, CD23 (FcεRII) (mouse (endogenous in peritoneal PMNs and macrophages)); test: co-IP; lysates of Wt mouse phagocytes incubated with IgGIC, LPS or both; IP with anti-CD23 (anti-FcεRII); blot with anti-TLR4 IgG
[3] = molecular target: T3, TLR6 (mouse (endogenous in peritoneal PMNs and macrophages)); test: co-IP; lysates of Wt mouse phagocytes incubated with IgGIC, LPS or both; IP with anti-TLR6 IgG; blot for FcγRIII
[4] = molecular target: Toll-like receptor 4 (TLR4) (mouse (endogenous in peritoneal PMNs and macrophages)) (UniProt Q9QUK6); test: co-IP; lysates (RIPA) of Wt mouse peritoneal PMNs or macrophages incubated 30 min with IgGIC (100 µg/ml; BSA IgGIC, polymyxin-treated BSA IgGIC or PAP IgGIC) or LPS+IgGIC; IP with anti-TLR4 IgG on protein A and G beads overnight; blot with anti-FcγRII/III mAb 2.4G2
[5] = molecular target: Toll-like receptor 4 (TLR4) (mouse (endogenous in peritoneal PMNs and macrophages)) (UniProt Q9QUK6); test: condition: only cells incubated with LPS (20 ng/ml) alone, without IgGIC; co-IP; as a1, but cells incubated 30 min with LPS (20 ng/ml) alone; IP with anti-TLR4 IgG; blot with anti-FcγRII/III mAb 2.4G2

| binding [1] | binding [2] | binding [3] | binding [4] | binding [5] | Molecule |
| --- | --- | --- | --- | --- | --- |
| binds | no binding |  |  |  | Toll-like receptor 4 (TLR4) (from UniProt Q9QUK6 26-835) |
|  |  | no binding | binds | no binding | FcγReceptorIII (CD16) (receptor, UniProt P08508 31-261) ALPKAVVKLDPPWIQVLKEDMVTLMCEGTHNPGNSSTQWFHNGRSIRSQVQASYTFKATVNDSGEYRCQMEQTRLSDPVDLGVISDWLLLQTPQRVFLEGETITLRCHSWRNKLLNRISFFHNEKSVRYHHYKSNFSIPKANHSHSGDYYCKGSLGSTQHQSKPVTITVQDPATTSSISLVWYHTAFSLVMCLLFAVDTGLYFYVRRNLQTPREYWRKSLSIRKHQAPQDK |
